Data: patent publication US20230114801A1 (SYSTIMMUNE, published 2023)

Columns and labels:
human CD3 [1] = target: T1, human CD3 (human, UniProt P07766 23-126; P04234 22-105); experiment: BLI (Octet), binder on AHC sensor, 100 nM human CD3, 1:1 fit
T1 construct: also called His-tagged human CD3; human CD3 (Acro CDD-H52W1)

human PD-L1 [2] = target: T2, human PD-L1 (human, UniProt Q9NZQ7 part only); experiment: BLI (Octet), binder on AHC sensor, 20 nM human PD-L1, 1:1 fit
T2 construct: Soluble antigen in Octet; bought; also called human PD-L1 (Acro PD1-H5229)

human EGFR = target: T3, human EGFR (human, UniProt P00533 part only, limits assumed); experiment: BLI (Octet), binder on AHC sensor, 200 nM human EGFR, 1:1 fit
T3 construct: Soluble antigen in Octet; construct not described

human HER3 = target: T4, human HER3 (human, UniProt P21860 part only); experiment: BLI (Octet), binder on AHC sensor, 200 nM human HER3, 1:1 fit
T4 construct: Soluble antigen in Octet; bought; also called human HER3 (Acro ER3-H5223)

human 4-1BB = target: T5, human 4-1BB (human, UniProt Q07011 24-186, limits assumed); experiment: BLI (Octet), binder on AHC sensor, 400 nM human 4-1BB, 1:1 fit
human 4-1BB, sequence (Q07011 24-186 limits assumed): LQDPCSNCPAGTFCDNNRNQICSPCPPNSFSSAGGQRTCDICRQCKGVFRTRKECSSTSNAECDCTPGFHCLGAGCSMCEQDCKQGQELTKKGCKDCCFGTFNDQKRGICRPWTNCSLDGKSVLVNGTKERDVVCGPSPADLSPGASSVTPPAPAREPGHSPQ
T5 construct: Soluble antigen in Octet; construct not described

human CD3 [3] = target: T1, human CD3; experiment: BLI (Octet); conditions not stated
T1 sequence (P07766 23-126, chain 1 of 2): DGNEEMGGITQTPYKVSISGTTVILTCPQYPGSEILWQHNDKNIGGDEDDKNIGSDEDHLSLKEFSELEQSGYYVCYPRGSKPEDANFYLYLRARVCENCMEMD
T1 sequence (P04234 22-105, chain 2 of 2, further chain): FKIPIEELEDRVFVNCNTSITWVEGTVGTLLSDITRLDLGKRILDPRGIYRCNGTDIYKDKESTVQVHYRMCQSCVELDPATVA

human PD-L1 [4] = target: T2, human PD-L1; experiment: BLI (Octet); conditions not stated
T2 sequence (Q9NZQ7 19-238 limits assumed): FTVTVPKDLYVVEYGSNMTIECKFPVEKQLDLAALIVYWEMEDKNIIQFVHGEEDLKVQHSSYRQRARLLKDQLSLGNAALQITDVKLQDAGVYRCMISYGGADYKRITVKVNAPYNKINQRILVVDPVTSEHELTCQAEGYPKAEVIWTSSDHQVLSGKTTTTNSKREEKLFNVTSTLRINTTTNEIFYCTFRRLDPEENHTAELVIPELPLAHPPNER

CD19 = target: T6, CD19 (UniProt P15391 20-291, limits assumed); experiment: BLI (Octet); conditions not stated
T6 sequence (looked up): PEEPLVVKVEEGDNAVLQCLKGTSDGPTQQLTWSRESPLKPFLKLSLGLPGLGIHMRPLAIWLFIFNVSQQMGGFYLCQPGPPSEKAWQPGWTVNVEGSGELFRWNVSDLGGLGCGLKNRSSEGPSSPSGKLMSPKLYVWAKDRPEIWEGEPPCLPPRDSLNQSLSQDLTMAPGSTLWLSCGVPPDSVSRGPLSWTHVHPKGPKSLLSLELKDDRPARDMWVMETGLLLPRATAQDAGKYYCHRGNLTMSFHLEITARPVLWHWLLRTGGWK

NKG2D ligand = experiment: BLI (Octet); conditions and ligand not stated

B1: SI-68E2 (other)
chain 1: DIQMTQSPSSLSASVGDRVTITCQASQDISNYLNWYQQKPGKAPKLLIYDASNLETGVPSRFSGSGSGTDFTFTISSLQPEDIATYFCQHFDHLPLAFGCGTKVEIKGGGGSGGGGSGGGGSGGGGSQVQLQESGPGLVKPSETLSLTCTVSGGSVSSGDYYWTWIRQSPGKCLEWIGHIYYSGNTNYNPSLKSRLTISIDTSKTQFSLKLSSVTAADTAIYYCVRDRVTGAFDIWGQGTMVTVSTGGGGSGGGGSEVQLVESGGGLVQPGGSLRLSCAASGFTISTNAMSWVRQAPGKGLEWIGVITGRDITYYASWAKGRFTISRDNSKNTLYLQMNSLRAEDTAVYYCARDGGSSAITSNNIWGQGTLVTVSSASTKGPSVFPLAPSSKSTSGGTAALGCLVKDYFPEPVTVSWNSGALTSGVHTFPAVLQSSGLYSLSSVVTVPSSSLGTQTYICNVNHKPSNTKVDKRVEPKSCDKTHTCPPCPAPEAAGGPSVFLFPPKPKDTLMISRTPEVTCVVVDVSHEDPEVKFNWYVDGVEVHNAKTKPREEQYASTYRVVSVLTVLHQDWLNGKEYKCAVSNKALPAPIEKTISKAKGQPREPQVCTLPPSRDELTKNQVSLSCAVKGFYPSDIAVEWESNGQPENNYKTTPPVLDSDGSFFLVSKLTVDKSRWQQGNVFSCSVMHEALHNHYTQKSLSLSPGK
chain 2: QSALTQPASVSGSPGQSITISCTGTSSDVGGYNFVSWYQQHPGKAPKLMIYDVSDRPSGVSDRFSGSKSGNTASLIISGLQADDEADYYCSSYGSSSTHVIFGCGTKVTVLGGGGSGGGGSGGGGSGGGGSQVQLQESGGGLVKPGGSLRLSCAASGFTFSSYWMSWVRQAPGKCLEWVANINRDGSASYYVDSVKGRFTISRDDAKNSLYLQMNSLRAEDTAVYYCARDRGVGYFDLWGRGTLVTVSTGGGGSGGGGSDVVMTQSPSTLSASVGDRVTINCQASESISSWLAWYQQKPGKAPKLLIYEASKLASGVPSRFSGSGSGTEFTLTISSLQPDDFATYYCQGYFYFISRTYVNSFGGGTKVEIKRTVAAPSVFIFPPSDEQLKSGTASVVCLLNNFYPREAKVQWKVDNALQSGNSQESVTEQDSKDSTYSLSSTLTLSKADYEKHKVYACEVTHQGLSSPVTKSFNRGECGG[human IgG1 Fc with L234A L235A N297A K322A S354C T366W (EU numbers) cut from this listing]GGGGSGGGGSEVQLLESGGGLVQPGGSLRLSCAASGFSFSSGYDMCWVRQAPGKCLEWIACIAAGSAGITYDANWAKGRFTISRDNSKNTLYLQMNSLRAEDTAVYYCARSAFSFDYAMDLWGQGTLVTVSSGGGGSGGGGSGGGGSGGGGSDIQMTQSPSTLSASVGDRVTITCQASQSISSHLNWYQQKPGKAPKLLIYKASTLASGVPSRFSGSGSGTEFTLTISSLQPDDFATYYCQQGYSWGNVDNVFGCGTKVEIK
notes: tetra-miniGNC, all scFv stapled; D1 αEGFR*, D2 αHER3, D3 αCD3 (Fab), D5 αPD-L1
Kd (human CD3 [1]): 28.4 nM | Kd (human PD-L1 [2]): 0.4 nM | Kd (human EGFR): < 0.001 nM | Kd (human HER3): 120 nM

B2: SI-68P1 (other)
chain 1: DIQMTQSPSSLSASVGDRVTITCQASQDISNYLNWYQQKPGKAPKLLIYDASNLETGVPSRFSGSGSGTDFTFTISSLQPEDIATYFCQHFDHLPLAFGCGTKVEIKGGGGSGGGGSGGGGSGGGGSQVQLQESGPGLVKPSETLSLTCTVSGGSVSSGDYYWTWIRQSPGKCLEWIGHIYYSGNTNYNPSLKSRLTISIDTSKTQFSLKLSSVTAADTAIYYCVRDRVTGAFDIWGQGTMVTVSTGGGGSGGGGSEVQLVESGGGLVQPGGSLRLSCAASGFTISTNAMSWVRQAPGKGLEWIGVITGRDITYYASWAKGRFTISRDNSKNTLYLQMNSLRAEDTAVYYCARDGGSSAITSNNIWGQGTLVTVSSASTKGPSVFPLAPSSKSTSGGTAALGCLVKDYFPEPVTVSWNSGALTSGVHTFPAVLQSSGLYSLSSVVTVPSSSLGTQTYICNVNHKPSNTKVDKRVEPKSCDKTHTCPPCPAPEAAGGPSVFLFPPKPKDTLMISRTPEVTCVVVDVSHEDPEVKFNWYVDGVEVHNAKTKPREEQYASTYRVVSVLTVLHQDWLNGKEYKCAVSNKALPAPIEKTISKAKGQPREPQVCTLPPSRDELTKNQVSLSCAVKGFYPSDIAVEWESNGQPENNYKTTPPVLDSDGSFFLVSKLTVDKSRWQQGNVFSCSVMHEALHNHYTQKSLSLSPGGGGGSGGGGSRSLVESGGGLVQPGGSLRLSCTASGFTISSYHMQWVRQAPGKCLEYIGTISSGGNVYYASSARGRFTISRPSSKNTVDLQMNSLRAEDTAVYYCARDSGYSDPMWGQGTLVTVSSGGGGSGGGGSGGGGSGGGGSDVVMTQSPSSVSASVGDRVTITCQASQNIRTYLSWYQQKPGKAPKLLIYAAANLASGVPSRFSGSGSGTDFTLTISDLEPGDAATYYCQSTYLGTDYVGGAFGCGTKVEIK
chain 2: QSALTQPASVSGSPGQSITISCTGTSSDVGGYNFVSWYQQHPGKAPKLMIYDVSDRPSGVSDRFSGSKSGNTASLIISGLQADDEADYYCSSYGSSSTHVIFGCGTKVTVLGGGGSGGGGSGGGGSGGGGSQVQLQESGGGLVKPGGSLRLSCAASGFTFSSYWMSWVRQAPGKCLEWVANINRDGSASYYVDSVKGRFTISRDDAKNSLYLQMNSLRAEDTAVYYCARDRGVGYFDLWGRGTLVTVSTGGGGSGGGGSDVVMTQSPSTLSASVGDRVTINCQASESISSWLAWYQQKPGKAPKLLIYEASKLASGVPSRFSGSGSGTEFTLTISSLQPDDFATYYCQGYFYFISRTYVNSFGGGTKVEIKRTVAAPSVFIFPPSDEQLKSGTASVVCLLNNFYPREAKVQWKVDNALQSGNSQESVTEQDSKDSTYSLSSTLTLSKADYEKHKVYACEVTHQGLSSPVTKSFNRGECGG[human IgG1 Fc with L234A L235A N297A K322A S354C T366W (EU numbers) cut from this listing]GGGGSGGGGSEVQLLESGGGLVQPGGSLRLSCAASGFSFSSGYDMCWVRQAPGKCLEWIACIAAGSAGITYDANWAKGRFTISRDNSKNTLYLQMNSLRAEDTAVYYCARSAFSFDYAMDLWGQGTLVTVSSGGGGSGGGGSGGGGSGGGGSDIQMTQSPSTLSASVGDRVTITCQASQSISSHLNWYQQKPGKAPKLLIYKASTLASGVPSRFSGSGSGTEFTLTISSLQPDDFATYYCQQGYSWGNVDNVFGCGTKVEIK
notes: penta-miniGNC, all scFv stapled; D1 αEGFR*, D2 αHER3, D3 αCD3 (Fab), D4 α4-1BB, D5 αPD-L1; also called penta-miniGNC (SI-68P1)
Kd (human CD3 [1]): 24.3 nM | Kd (human PD-L1 [2]): 0.6 nM | Kd (human EGFR): < 0.001 nM | Kd (human HER3): 93.4 nM | Kd (human 4-1BB): 9.8 nM

B3: SI-49P_X (other)
chain 1: EIVMTQSPSTLSASVGDRVIITCQASESISSWLAWYQQKPGKAPKLLIYEASKLASGVPSRFSGSGSGAEFTLTISSLQPDDFATYYCQGYFYFISRTYVNSFGCGTKLTVLGSTGSGSKPGSGEGSTKGEVQLVESGGGLVQPGGSLRLSCTASGFTISTNAMSWVRQAPGKCLEWVGVITGRDITYYASWAKGRFTISRDTSKNTVYLQMNSLRAEDTAVYYCARDGGSSAITSNNIWGQGTLVTVSTGGGGSGGGGSFLNSLFNQEVQIPLTESYCGPCPKNWICYKNNCYQFFDESKNWYESQASCMSQNASLLKVYSKEDQDLLKLVKSYHWMGLVHIPTNGSWQWEDGSILSPNLLTIIEMQKGDCALYASSFKGYIENCSTPNTYICMQRTVASTKGPSVFPLAPSSKSTSGGTAALGCLVKDYFPEPVTVSWNSGALTSGVHTFPAVLQSSGLYSLSSVVTVPSSSLGTQTYICNVNHKPSNTKVDKRVEPKSCDKTHTCPPCPAPEAAGGPSVFLFPPKPKDTLMISRTPEVTCVVVDVSHEDPEVKFNWYVDGVEVHNAKTKPREEQYASTYRVVSVLTVLHQDWLNGKEYKCAVSNKALPAPIEKTISKAKGQPREPQVCTLPPSRDELTKNQVSLSCAVKGFYPSDIAVEWESNGQPENNYKTTPPVLDSDGSFFLVSKLTVDKSRWQQGNVFSCSVMHEALHNHYTQKSLSLSPG
chain 2: ENVLTQSPASLSASPGERVTITCSASSSVSYMHWYQQKPGQAPKLWIYDTSKLASGVPSRFSGSGSGNDHTLTISSMEPEDFATYYCFQGSVYPFTFGQGTKLEIKGSTGSGSKPGSGEGSTKGQVTLKESGPGLVQPGQTLRLTCAFSGFSLSTSGMGVGWIRQPPGKGLEWLAHIWWDDDKRYNPALKSRLTISKDTSKNQVYLQMNSLDAEDTAVYYCARMELWSYYFDYWGQGTLVTVSTGGGGSGGGGSFLNSLFNQEVQIPLTESYCGPCPKNWICYKNNCYQFFDESKNWYESQASCMSQNASLLKVYSKEDQDLLKLVKSYHWMGLVHIPTNGSWQWEDGSILSPNLLTIIEMQKGDCALYASSFKGYIENCSTPNTYICMQRTVRTVAAPSVFIFPPSDEQLKSGTASVVCLLNNFYPREAKVQWKVDNALQSGNSQESVTEQDSKDSTYSLSSTLTLSKADYEKHKVYACEVTHQGLSSPVTKSFNRGECGG[human IgG1 Fc with L234A L235A N297A K322A S354C T366W (EU numbers) cut from this listing]GGGGSGGGGSEVQLLESGGGLVQPGGSLRLSCAASGFSFSSGYDMCWVRQAPGKCLEWIACIAAGSAGITYDANWAKGRFTISRDNSKNTLYLQMNSLRAEDTAVYYCARSAFSFDYAMDLWGQGTLVTVSSGGGGSGGGGSGGGGSGGGGSDIQMTQSPSTLSASVGDRVTITCQASQSISSHLNWYQQKPGKAPKLLIYKASTLASGVPSRFSGSGSGTEFTLTISSLQPDDFATYYCQQGYSWGNVDNVFGCGTKVEIK
notes: tetra-miniGNC; D1 αCD3, D2 αCD19, D3 NKG2D receptor dimer, D5 αPD-L1
Kd (human CD3 [3]): 30.4 nM | Kd (human PD-L1 [4]): 0.2 nM | Kd (CD19): 1.31 nM | Kd (NKG2D ligand): 10.4 nM
